According to the supplement of paper PMC4967469:
pIC50: −log10 of the molar value. By IC50 is meant the dose at which the fit gives 50% viability; fits outside the tested doses are given as limits. The AUC spans the tested range (256-fold, ending at the top dose) of the same fit: 1 means no effect, lower means more sensitive. For some of these results: The top dose, if marked as inferred, comes from the curve model; the source does not state it.

Tests used:
Assay in all cases: Viability of human cancer cell lines after 72 h of drug (GDSC screen)
CP724714 = compound: COCC(=O)NC/C=C/c1ccc2ncnc(Nc3ccc(Oc4ccc(C)nc4)c(C)c3)c2c1 [CP724714]; conditions: top dose 10.24 µM; top dose inferred
Method: (§1)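 Human cancer cell lines in 384-well plates, medium with 10% serum, drug for 72 h over a 256-fold dose range (nine 2-fold or five 4-fold steps up to the top dose). Adherent lines were fixed and stained with the nucleic acid dye Syto60, suspension lines read with resazurin; signal relative to control wells, capped at 0 and 100%. One two-parameter sigmoid per drug and line, fitted in a mixed model over all curves with the slope shared within a line.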

Obatoclax mesylate = compound: COC1=CC(c2cc3ccccc3[nH]2)=N/C1=C\c1[nH]c(C)cc1C [Obatoclax mesylate]; conditions: top dose 16 µM
Method: as §1

CX-5461 = compound: Cc1cnc(CNC(=O)c2c(=O)c3ccc(N4CCCN(C)CC4)nc3n3c2sc2ccccc23)cn1 [CX-5461]; conditions: top dose 10.24 µM; top dose inferred
Method: as §1

STF-62247 = compound: Cc1cccc(Nc2nc(-c3ccncc3)cs2)c1 [STF-62247]; conditions: top dose 10.24 µM; top dose inferred
Method: as §1

Row | Cell Line | AUC (CP724714) | pIC50 (CP724714) | AUC (Obatoclax mesylate) | pIC50 (Obatoclax mesylate) | AUC (CX-5461) | pIC50 (CX-5461) | AUC (STF-62247) | pIC50 (STF-62247)
1 | CAKI-1 (kidney, adherent) | 0.942 | < 4.99 | 0.58 | 5.74 | 0.904 | < 4.99 | 0.938 | < 4.99
2 | CAL-12T (non-small cell lung carcinoma, adherent) | 0.909 | < 4.99 | 0.075 | > 7.20 | 0.618 | 5.85 | 0.928 | < 4.99
3 | CAL-27 (head and neck, adherent) | 0.946 | < 4.99 | 0.128 | 7.20 | 0.898 | < 4.99 | 0.984 | < 4.99
4 | CAL-29 (bladder, adherent) | 0.968 | < 4.99 | 0.606 | 5.70 | 0.98 | < 4.99 | 0.985 | < 4.99
5 | CAL-33 (head and neck, adherent) | 0.96 | < 4.99 | 0.398 | 6.28 | 0.917 | < 4.99 | 0.985 | < 4.99
6 | CAL-39 (cervix, adherent) | 0.983 | < 4.99 | 0.28 | 6.64 | 0.808 | 5.26 | 0.986 | < 4.99
7 | CAL-51 (breast, adherent) | 0.984 | < 4.99 | 0.115 | 7.13 | 0.984 | < 4.99 | 0.991 | < 4.99
8 | CAL-54 (kidney, adherent) | 0.985 | < 4.99 | 0.534 | 5.90 | 0.985 | < 4.99 | 0.985 | < 4.99
9 | CAL-62 (thyroid, adherent) | 0.988 | < 4.99 | 0.091 | > 7.20 | 0.953 | < 4.99 | 0.984 | < 4.99
10 | CAL-72 (osteosarcoma, adherent) | 0.984 | < 4.99 | 0.277 | 6.69 | 0.984 | < 4.99 | 0.982 | < 4.99
11 | CAL-78 (chondrosarcoma, adherent) | 0.986 | < 4.99 | 0.758 | 5.20 | 0.97 | < 4.99 | 0.971 | < 4.99
12 | CAL-85-1 (breast, adherent) | 0.924 | < 4.99 | 0.088 | > 7.20 | 0.599 | 5.89 | 0.915 | < 4.99
13 | CAL-120 (breast, adherent) | 0.98 | < 4.99 | 0.298 | 6.64 | 0.917 | < 4.99 | 0.976 | < 4.99
14 | CAMA-1 (breast, adherent) | 0.961 | < 4.99 | 0.37 | 6.40 | 0.962 | < 4.99 | 0.952 | < 4.99
15 | CAPAN-1 (pancreas, adherent) | 0.986 | < 4.99 | 0.416 | 6.24 | 0.81 | 5.21 | 0.987 | < 4.99
16 | CCF-STTG1 (glioma, adherent) | 0.988 | < 4.99 | 0.44 | 6.16 | 0.985 | < 4.99 | 0.983 | < 4.99
17 | CCK-81 (large intestine, adherent) | 0.958 | < 4.99 | 0.619 | 5.68 | 0.75 | 5.50 | 0.979 | < 4.99
18 | CFPAC-1 (pancreas, adherent) | 0.976 | < 4.99 | 0.236 | 6.82 | 0.977 | < 4.99 | 0.984 | < 4.99
19 | CHL-1 (melanoma, adherent) | 0.851 | 5.15 | 0.144 | 7.07 | 0.73 | 5.56 | 0.987 | < 4.99
20 | CHP-212 (neuroblastoma, adherent) | 0.981 | < 4.99 | 0.166 | 6.97 | 0.87 | 5.08 | 0.988 | < 4.99
21 | CHSA0011 (chondrosarcoma, adherent) | 0.976 | < 4.99 | 0.79 | 4.98 | 0.962 | < 4.99 | 0.966 | < 4.99

Row | Cell Line | AUC (CP724714) | pIC50 (CP724714) | AUC (Obatoclax mesylate) | pIC50 (Obatoclax mesylate) | AUC (CX-5461) | pIC50 (CX-5461) | AUC (STF-62247) | pIC50 (STF-62247)
22 | CHSA0108 (chondrosarcoma, adherent) | 0.976 | < 4.99 | 0.622 | 5.64 | 0.979 | < 4.99 | 0.926 | < 4.99
23 | COLO-205 (large intestine, suspension) | 0.979 | < 4.99 | 0.104 | > 7.20 | 0.94 | < 4.99 | 0.988 | < 4.99
24 | COLO-678 (large intestine, semi-adherent) | 0.984 | < 4.99 | 0.68 | 5.43 | 0.985 | < 4.99 | 0.983 | < 4.99
25 | COLO-679 (melanoma, adherent) | 0.977 | < 4.99 | 0.127 | > 7.20 | 0.965 | < 4.99 | 0.984 | < 4.99
26 | COLO-680N (oesophagus, adherent) | 0.986 | < 4.99 | 0.193 | 7.00 | 0.986 | < 4.99 | 0.986 | < 4.99
27 | COLO-783 (melanoma, adherent) | 0.984 | < 4.99 | 0.759 | 5.27 | 0.991 | < 4.99 | 0.99 | < 4.99
28 | COLO-792 (melanoma, adherent) | 0.949 | < 4.99 | 0.213 | 6.84 | 0.986 | < 4.99 | 0.978 | < 4.99
29 | COR-L23 (large cell lung carcinoma, adherent) | 0.966 | < 4.99 | 0.164 | 7.01 | 0.589 | 5.95 | 0.954 | < 4.99
30 | COR-L105 (lung adenocarcinoma, adherent) | 0.913 | < 4.99 | 0.313 | 6.58 | 0.902 | < 4.99 | 0.901 | < 4.99
31 | CP50-MEL-B (melanoma, adherent) | 0.978 | < 4.99 | 0.188 | 6.93 | 0.988 | < 4.99 | 0.973 | < 4.99
32 | CS1 (bone, adherent) | 0.954 | < 4.99 | 0.452 | 6.14 | 0.813 | 5.20 | 0.955 | < 4.99
33 | Ca9-22 (head and neck, adherent) | 0.954 | < 4.99 | 0.156 | 7.01 | 0.921 | < 4.99 | 0.978 | < 4.99
34 | Ca-Ski (cervix, adherent) | 0.925 | < 4.99 | 0.321 | 6.53 | 0.751 | 5.43 | 0.959 | < 4.99
35 | CaR-1 (large intestine, adherent) | 0.976 | < 4.99 | 0.695 | 5.33 | 0.949 | < 4.99 | 0.965 | < 4.99
36 | Calu-3 (lung adenocarcinoma, adherent) | 0.763 | 5.34 | 0.311 | 6.59 | 0.983 | < 4.99 | 0.982 | < 4.99
37 | Calu-6 (lung adenocarcinoma, adherent) | 0.978 | < 4.99 | 0.236 | 6.82 | 0.881 | < 4.99 | 0.983 | < 4.99
38 | Caov-3 (ovary, adherent) | 0.978 | < 4.99 | 0.571 | 5.82 | 0.952 | < 4.99 | 0.989 | < 4.99
39 | Capan-2 (pancreas, adherent) | 0.98 | < 4.99 | 0.408 | 6.27 | 0.963 | < 4.99 | 0.984 | < 4.99
40 | ChaGo-K-1 (non-small cell lung carcinoma, adherent) | 0.979 | < 4.99 | 0.407 | 6.27 | 0.981 | < 4.99 | 0.984 | < 4.99
41 | DAN-G (pancreas, adherent) | 0.975 | < 4.99 | 0.615 | 5.70 | 0.988 | < 4.99 | 0.978 | < 4.99
42 | DBTRG-05MG (glioma, adherent) | 0.975 | < 4.99 | 0.559 | 5.82 | 0.957 | < 4.99 | 0.972 | < 4.99

Row | Cell Line | AUC (CP724714) | pIC50 (CP724714) | AUC (Obatoclax mesylate) | pIC50 (Obatoclax mesylate) | AUC (CX-5461) | pIC50 (CX-5461) | AUC (STF-62247) | pIC50 (STF-62247)
43 | DK-MG (glioma, adherent) | 0.978 | < 4.99 | 0.491 | 6.03 | 0.96 | < 4.99 | 0.961 | < 4.99
44 | DMS-53 (small cell lung carcinoma, adherent) | 0.971 | < 4.99 | 0.406 | 6.27 | 0.988 | < 4.99 | 0.985 | < 4.99
45 | DMS-273 (small cell lung carcinoma, adherent) | 0.972 | < 4.99 | 0.114 | > 7.20 | 0.776 | 5.36 | 0.962 | < 4.99
46 | DOK (head and neck, adherent) | 0.931 | < 4.99 | 0.499 | 6.00 | 0.961 | < 4.99 | 0.976 | < 4.99
47 | DU-145 (prostate, adherent) | 0.985 | < 4.99 | 0.383 | 6.34 | 0.856 | 5.01 | 0.964 | < 4.99
48 | Daoy (medulloblastoma, adherent) | 0.884 | 5.03 | 0.065 | > 7.20 | 0.74 | 5.54 | 0.98 | < 4.99
49 | Detroit562 (head and neck, adherent) | 0.979 | < 4.99 | 0.365 | 6.37 | 0.988 | < 4.99 | 0.987 | < 4.99
50 | DoTc2-4510 (cervix, adherent) | 0.97 | < 4.99 | 0.077 | > 7.20 | 0.975 | < 4.99 | 0.989 | < 4.99
51 | EBC-1 (lung squamous cell carcinoma, adherent) | 0.971 | < 4.99 | 0.238 | 6.81 | 0.98 | < 4.99 | 0.98 | < 4.99
52 | ECC10 (stomach, suspension) | 0.962 | < 4.99 | 0.547 | 5.87 | 0.972 | < 4.99 | 0.961 | < 4.99
53 | EFM-19 (breast, adherent) | 0.966 | < 4.99 | 0.232 | 6.97 | 0.968 | < 4.99 | 0.978 | < 4.99
54 | EFM-192A (breast, adherent) | 0.978 | < 4.99 | 0.214 | 6.89 | 0.929 | < 4.99 | 0.983 | < 4.99
55 | EFO-21 (ovary, adherent) | 0.944 | < 4.99 | 0.472 | 6.09 | 0.825 | 4.99 | 0.965 | < 4.99
56 | EFO-27 (ovary, adherent) | 0.925 | < 4.99 | 0.372 | 6.39 | 0.926 | < 4.99 | 0.978 | < 4.99
57 | EGI-1 (biliary tract, adherent) | 0.971 | < 4.99 | 0.541 | 5.88 | 0.982 | < 4.99 | 0.963 | < 4.99
58 | EN (endometrium, adherent) | 0.971 | < 4.99 | 0.689 | 5.41 | 0.901 | < 4.99 | 0.983 | < 4.99
59 | EPLC-272H (lung squamous cell carcinoma, adherent) | 0.957 | < 4.99 | 0.468 | 6.09 | 0.68 | 5.66 | 0.949 | < 4.99
60 | ESS-1 (endometrium, adherent) | 0.984 | < 4.99 | 0.162 | 6.97 | 0.642 | 5.82 | 0.99 | < 4.99
61 | EW-7 (Ewing sarcoma, semi-adherent) | 0.98 | < 4.99 | 0.08 | > 7.20 | 0.279 | 6.78 | 0.966 | < 4.99
62 | FADU (head and neck, adherent) | 0.962 | < 4.99 | 0.202 | 6.86 | 0.978 | < 4.99 | 0.984 | < 4.99
